Experimental data from the supplement of paper PMC12217912.
This is one part of the list. The full chains were built here from the parent and the listed change. Values near 0.05 are background.

B1: TEV protease; numbered along this chain (parent)
chain: MGESLFKGPRDYNPISSSICHLTNESDGHTTSLYGIGFGPFIITNKHLFRRNNGTLVVQSLHGVFKVKDTTTLQQHLVDGRDMIIIRMPKDFPPFPQKLKFREPQREERICLVTTNFQTKSMSSMVSDTSCTFPSGDGIFWKHWIQTKDGQCGSPLVSTRDGFIVGIHSASNFTNTNNYFTSVPKNFMELLTNQEAQQWVSGWRLNADSVLWGGHKVFMVKPEEPFQPVKEATQL

Variants of: B1
Assay: raw area under fraction-flipped curve 0-4 h after induction (AUC4h, not background-subtracted), DNA-recorder readout of cleavage of the substrate (dimensionless); higher = more cleavage of the substrate by the protease variant
Settings: temperature: 34 °C; time window: 0-4 h after rhamnose induction
Experimental: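 In vivo DNA recorder in E. coli TOP10(DE3) ΔrhaA at 34 °C. Each TEVp single-site mutant (parent TEVp 0) is paired with a single-site variant of the 7-mer TEVs (canonical ENLYFQ|S). The substrate sits between flexible linkers in a Bxb1-sfGFP-TEVs-SsrA fusion, so cleavage stabilises Bxb1 and speeds flipping of a recombination array, read by NGS. The value is the raw area under the fraction-flipped curve over 0-4 h after rhamnose induction (AUC4h), with ≥20 reads per time point. It is not background-subtracted; inactive controls average about 0.047.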
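Also: Bxb1 expression induced with 0.2% (w/v) L-rhamnose at OD600 near 0.5, cultures sampled hourly, flipped fraction per protease–substrate barcode pair counted by paired-end Illumina sequencing.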

Variant	area with substrate ENLYFAS	area with substrate ENLYFCS	area with substrate ENLYFDS	area with substrate ENLYFES	area with substrate ENLYFGS	area with substrate ENLYFHS	area with substrate ENLYFIS	area with substrate ENLYFKS	area with substrate ENLYFMS	area with substrate ENLYFNS	area with substrate ENLYFPS	area with substrate ENLYFSS	area with substrate ENLYFTS	area with substrate ENLYFWS	area with substrate ENLYFYS	area with substrate ENLYFFS	area with substrate ENLYFRS	area with substrate ENLYFVS	area with substrate ENLYFLS
R51L	0.0584	0.0604	0.0601	0.067	0.0664	0.0519	0.0596	0.0593	0.0635	0.0692	0.0696	0.0674	0.0637	0.0406	0.0637	–	–	–	–
Q59Y	0.0393	0.0523	–	0.0535	–	–	0.0513	–	–	0.0671	0.0504	0.0591	0.0564	0.05	–	0.0391	0.0577	–	–
H76A	0.0588	0.0577	0.0664	0.0607	–	–	0.0652	–	0.0821	0.0615	0.0579	–	0.0605	–	0.0649	0.0719	0.0496	0.059	–
H76Q	0.0507	0.0511	–	0.0698	–	–	0.064	–	0.0783	–	0.0708	0.0507	0.0669	0.0606	–	–	–	–	–
H76I	0.0741	0.059	–	–	–	0.0517	0.0558	0.0583	0.0513	–	0.0668	0.0225	–	–	0.0542	0.0818	0.0204	–	–
N45K	0.0546	0.0546	–	0.0539	–	0.0446	0.0257	–	0.0525	–	0.0676	0.0507	0.0512	–	0.0525	0.0693	–	0.0523	–
N45A	0.0557	–	–	0.058	–	0.0702	0.0428	0.0643	0.0599	–	0.0595	0.0594	0.0873	0.0543	0.0574	0.0747	0.0827	0.0635	0.0586
F49C	0.0524	0.0483	0.0526	0.0626	0.0662	0.0656	0.0546	0.0628	0.0636	0.0513	0.0639	0.0507	0.0587	0.075	0.0627	0.0602	0.0654	–	0.0522
P40E	0.0558	–	0.0646	0.0714	–	–	0.0566	0.0441	0.0323	0.0861	0.0816	–	0.07	–	0.0527	0.0613	0.0485	0.0533	0.051
I42N	0.019	–	0.0446	–	0.0427	0.0551	0.0364	–	0.0504	–	–	0.0444	–	–	0.0564	0.0573	0.0423	0.0258	0.0573
G37N	0.0524	–	–	–	–	0.0464	0.0526	0.0497	0.041	0.0548	0.0494	0.0466	0.0567	0.0256	0.0389	–	–	–	–
G37K	0.0432	0.0575	0.049	0.0536	0.0522	0.0518	0.0415	0.0549	0.0665	0.0427	0.0514	–	0.0503	0.0688	–	–	0.0495	–	0.0444
Q74E	0.0536	0.0479	–	0.0676	–	–	0.0491	0.0545	–	0.0636	0.0682	–	0.0796	–	–	0.066	–	0.0578	–
Q74W	0.0573	0.0582	–	0.0725	–	–	0.0586	–	–	0.0539	0.0507	0.065	0.0661	–	0.071	0.071	0.0603	0.0539	–
L61D	0.0582	0.0691	–	0.0658	0.0642	0.0619	0.0552	0.0737	0.0682	0.0608	0.0687	0.0575	0.0527	0.0537	–	0.0717	0.0649	–	0.0574
L61K	0.0537	–	–	0.0672	0.0546	–	0.0518	–	0.075	–	–	–	–	–	0.0538	–	0.0563	–	–
G63D	0.0729	0.0522	0.0874	0.0584	0.0413	0.0643	0.0584	0.053	0.0527	–	–	0.0459	0.0527	0.0595	–	0.0762	0.03	0.0442	–
V58K	0.0519	0.0518	–	–	–	0.0379	0.0492	–	0.03	–	–	0.042	–	–	0.0531	0.0565	0.0542	–	0.0403
H47I	0.0648	0.056	–	0.052	0.0443	0.0519	0.0559	0.0696	0.0541	0.0618	0.0594	0.0574	–	0.0458	0.0648	0.067	0.0558	0.0637	–
H47V	0.063	0.0657	0.0565	0.0628	–	0.0406	–	0.0586	0.0652	–	0.0609	0.0603	0.0714	0.0551	0.0565	0.0703	0.06	0.0572	0.0507
F41V	0.0577	–	–	0.0639	–	0.059	0.0496	–	0.084	0.0529	0.0252	0.0254	0.0523	0.0762	0.0966	0.0486	0.0542	0.0558	–
F41L	0.0448	0.066	0.0521	0.0658	0.0623	0.0436	0.0593	0.0613	0.0675	0.0547	0.0554	0.06	0.061	0.0602	0.0589	0.0716	0.0802	–	–
G54T	0.0521	0.0606	0.0504	0.0617	0.0613	0.0644	0.0515	0.059	0.0591	0.0616	0.0555	–	0.0585	0.0546	0.0542	0.0574	0.0644	0.051	–
G54N	0.0553	0.0495	–	0.0602	0.0597	–	0.062	0.0605	0.0652	0.061	0.0625	0.0632	0.0618	–	0.0468	0.0682	0.0493	0.0643	0.0608
G54Y	0.0308	0.0514	0.104	0.0415	–	0.0779	0.0732	0.0634	–	0.06	–	–	–	0.0299	0.0562	0.0672	–	–	–
F65T	0.0807	0.0351	–	0.0674	0.0664	–	0.0594	0.0767	0.0666	0.0628	0.0661	0.0671	0.0573	–	–	0.0781	0.0606	–	0.0515
